Source: PubChem BioAssay AID1745853 (National Center for Advancing Translational Sciences (NCATS), 2022)
Values joined by “and” are separate entries in the source; they are usually repeats but may differ in a detail not shown here. Equal entries are not always repeated. Some of the results follow. These are further read-outs of the screen, such as a control signal, another cell line or another target. No call is given for them.

How the values were obtained:
Experiment in all cases: Primary Screen for Target Class Profiling of Small Molecule Inhibitors of Methyltransferases
[1] = biological target: Glycine N-methyltransferase (Homo sapiens) (UniProt Q14749); details: purified enzyme, MTase-Glo SAH luminescence; measured here: GNMT inhibition; at 40 µM; stronger effect = lower value
How it was run: (§1)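 Each enzyme was assayed with SAM and its substrate. SAH formation detected by MTase-Glo luminescence; single-point 40 uM screen[…].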

[2] = biological target: Guanidinoacetate N-methyltransferase (Homo sapiens) (UniProt Q14353); details: purified enzyme, MTase-Glo SAH luminescence; measured here: GAMT inhibition; at 40 µM; stronger effect = lower value
How it was run: as §1

[3] = biological target: Histamine N-methyltransferase (Homo sapiens) (UniProt P50135); details: purified enzyme, MTase-Glo SAH luminescence; measured here: HNMT inhibition; at 40 µM; stronger effect = lower value
How it was run: as §1

[4] = biological target: Nicotinamide N-methyltransferase (Homo sapiens) (UniProt P40261); details: purified enzyme, MTase-Glo SAH luminescence; measured here: NNMT inhibition; at 40 µM; stronger effect = lower value
How it was run: as §1

[5] = biological target: Phenylethanolamine N-methyltransferase (Homo sapiens) (UniProt P11086); details: purified enzyme, MTase-Glo SAH luminescence; measured here: PNMT inhibition; at 40 µM; stronger effect = lower value
How it was run: as §1
On the % scale 0 is the no-effect control and ±100 the full control effect.

Compound | activity change, negative = inhibition [1] | activity change, negative = inhibition [2] | activity change, negative = inhibition [3] | activity change, negative = inhibition [4] | activity change, negative = inhibition [5]
CC(=O)OC1CC(C)C2(CCC3(CC(=O)OC3O)O2)C2(C)CCCC(C)(C)C12 (stereo not given) | -8.59% | -5.47% | 4.94% | -19.5% | -0.17%
O=C1c2c(O)cc(O)cc2OC(c2ccc(O)c(O)c2)C1O (stereo not given) | -28.7% and 48.5% | 1.78% and 0% | -3.88% and 0.681% | -4.77% and 10.3% | 5.21% and -1.26%
Cc1ccc(Cn2c(=O)c3ccccc3n3c(SCC(=O)Nc4ccc(F)cc4)nnc23)cc1 | 6.12% | 0% | 14% | 8.01% | 5.62%
Cc1ccccc1CSc1nnc2n(C)c(=O)c3ccc(C(=O)NC4CCCCC4)cc3n12 | 1.01% | 2.04% | 7.76% | 6.95% | 7.92%
CCc1ccc(N2C(=O)c3cc(-c4ccco4)nn3CC2(C)C(=O)NC2CCCCC2)cc1 (stereo not given) | -1.71% | 5.66% | -1.67% | 1.33% | -5.11%
CCc1ccc(CNC(=O)c2cc3n(n2)CC(C)(C(=O)NC2CCCC2)N(CC)C3=O)cc1 (stereo not given) | 5.78% | 0.834% | 3.38% | 8.38% | 2.12%
O=C(Cn1nc2n(CCc3ccccc3)c(=O)c3ccccc3n2c1=O)c1ccccc1 | -1.46% | 2.85% | 3.8% | -7.02% | -5.04%
Cc1nn2c(SCC(=O)Nc3cccc(Cl)c3)nnc2[nH]c1=O | 8.09% | 2.92% | 6.22% | 4.89% | 3.41%
C=Cc1ccc(CSc2nnc3n(CCC)c(=O)c4ccccc4n23)cc1 | -10.9% | 3.77% | -3.21% | -11.6% | 1.65%
O=C(NCc1csc(-c2cnccn2)n1)C1NCCc2[nH]cnc21 (stereo not given) | -7.05% | -8.57% | -9.22% | -14.5% | -2.55%
Cc1ccc(CCNS(=O)(=O)c2ccc3[nH]c4c(c3c2)CCCC4)cc1 | -3.89% | 3.7% | 2.24% | -7.76% | -6.36%
CCOc1ccccc1NC(=O)c1ncn2c1C(=O)N(C1CC1)C(C)(C(=O)NC1CCCC1)C2 (stereo not given) | -5.98% | 1.69% | -7.21% | -12.1% | -7.96%
CN(C)CCCOc1nn(Cc2ccccc2)c2ccccc12 | -4.19% | -11.4% | -10.8% | -21.1% | -13.8%
C[C@@H]1C(=O)O[C@H]2[C@H]1CC[C@@]1(C)C(=O)C=C[C@](C)(O)[C@H]21 | 3.99% | 2.18% | 6.83% | -12% | 4.07%
COCC(=O)N[C@H]1C[C@H]2C(=O)NC[C@@H](CCC(=O)N3CCN(c4ccccn4)CC3)N2C1 | 0.331% | -0.109% | 3.48% | -3.51% | -0.031%
CC(=O)Nc1c2n(c3ccc(F)cc13)CC(C)(C(=O)NC1CCCC1)N(Cc1ccco1)C2=O (stereo not given) | 5.95% | 4.53% | 1.08% | 1.47% | -3.02%
COC(=O)[C@@H](O)[C@H]1[C@@]2(C)CC3(O)[C@@H](C(=O)[C@H]2O)[C@]24O[C@]25CC(=O)O[C@@H](c2ccoc2)[C@]5(C)CCC4[C@]13C (stereo not given in full) | 0% | 1.97% | 7.44% | -9.82% | 0.155%
Cc1cc2c(cc3n2CC(C)(C(=O)NC2CCCCC2)N(Cc2cccc(F)c2)C3=O)o1 (stereo not given) | 0.094% | 4.38% | 0.916% | -6.17% | -0.998%
Cc1ccc(C2(O)CCN(C(=O)c3cnn4cc(CCO)cnc34)CC2)nc1 | -3.54% | 0.944% | 1.89% | 0.787% | 2.54%
O=S(=O)(Nc1cccc(Br)c1)c1ccc2[nH]c3c(c2c1)CCCC3 | -5.89% | -0.019% | -1.76% | -13% | -3.74%

Compound | activity change, negative = inhibition [1] | activity change, negative = inhibition [2] | activity change, negative = inhibition [3] | activity change, negative = inhibition [4] | activity change, negative = inhibition [5]
CC(C)C1CCC(CO)=CC1/C=C(\CO)C(=O)OCC1(O)CCC(C(C)C)C2C=C(C(=O)O)COC(=O)C21 (stereo not given) | 0% | -4.09% | 0.644% | -17.4% | -0.394%
COc1ccc(CCNS(=O)(=O)c2ccc3[nH]c4c(c3c2)CCCC4)cc1OC | -20.2% | 4.09% | -14.3% | -9.66% | -0.804%
FC(F)(F)c1ccc(/C=C/c2nc(COc3ccc(CCCCn4ccnn4)cc3)co2)cc1 | -2.16% | -11.8% | 4.04% | -26.3% | -7.03%
COc1ccc2c(c1)c(NC(C)=O)c1n2CC(C)(C(=O)NC2CCCCC2)N(C2CCCC2)C1=O (stereo not given) | 8.36% | 0.939% | 10.6% | 13.5% | 4.61%
CCC1(O)CC2c3cc(OC)c(OC)cc3CCN2CC1CC(C)C (stereo not given) | -8.74% | -3% | -2.28% | -16% | -11.5%
COc1ccccc1CNC(=O)CC1COCCN1C(=O)c1cnccn1 (stereo not given) | -0.253% | -1.29% | -2.2% | -1.7% | -1.53%
O=C1c2ccccc2C(=O)c2c(NCCc3ccc(O)cc3)ccc(NCCc3ccc(O)cc3)c21 | -42.9% | -35.6% | -81.9% | -39.7% | -41.3%
O=C1CN(Cc2ccc(F)cc2Cl)S(=O)(=O)c2ccccc2N1Cc1cccc(F)c1 | -1.34% | 3.19% | -2.38% | -4.3% | -5.7%
Cc1ccc(C(=O)COC(=O)C(Cc2c[nH]c3ccccc23)NC(=O)c2ccco2)cc1 (stereo not given) | 6.56% | 1.11% | 10.7% | -1.32% | 4.25%
CC1CCCCC1NC(=O)C1(C)Cn2c(cc3occc32)C(=O)N1c1ccc(Cl)cc1 (stereo not given) | -2.72% | 1.19% | 1.43% | 3.73% | 3.46%
CCOCCCN1C(=O)c2cc3c(OC)ccc(OC)c3n2CC1(C)C(=O)NC1CCCCCC1 (stereo not given) | 1.96% | 1.52% | 5.22% | -0.307% | -1.25%
Cc1cc2c(cc3n2CC(C)(C(=O)NC2CCCCC2)N(CCN2CCN(C)CC2)C3=O)o1 (stereo not given) | 1.94% | 5.27% | -1.51% | 4.48% | -2.76%
CC(C)NC(=O)N1CCC2(CC1)CN(C(=O)Cc1c[nH]c3ccccc13)CCO2 | -0.795% | 0.24% | 2.44% | -8.2% | -3.43%
O=C1NCCCCCCN[C@H]2C[C@H](c3nc(-c4cnccn4)no3)C[C@@H]12 | -2.29% | -0.414% | -0.239% | -0.377% | 0.609%
CCn1cc(CN2CCN(C(=O)c3cccs3)CC2)ccc1=O | -59% | -33.4% | -8.14% | -11% | -35.9%
Cc1cnc(NC(=O)Nc2cc(Br)c(C)cc2OCC2CNCCO2)cn1 (stereo not given) | 3.86% | 12.4% | 9.74% | -4.74% | 4.08%
Cc1cccc(N2C(=O)c3cc4occc4n3CC2(C)C(=O)NC2CCC(C)CC2)c1C (stereo not given) | -10.3% | -1.59% | -4.04% | -8.29% | -9.74%
O=C(O)[C@H]1C[C@@H](C(=O)NCc2ccncc2)CN(C2CCOCC2)C1 | -3.93% | -8% | -3.59% | -13.1% | 10.5%
CC(C)CCN1C(=O)c2cc(-c3ccco3)nn2CC1(C)C(=O)NC1CCCCCC1 (stereo not given) | 2.77% | -1% | 4.97% | 2.32% | -2.23%
CCC[C@H]1CN(C(=O)c2cc(=O)[nH]c3cc(F)ccc23)C[C@@H]1N | -2.96% | -0.936% | -1.84% | -1.8% | 3.05%

Compound | activity change, negative = inhibition [1] | activity change, negative = inhibition [2] | activity change, negative = inhibition [3] | activity change, negative = inhibition [4] | activity change, negative = inhibition [5]
CSc1ccc(CCN2C(=O)c3cc4ccccc4n3CC2(C)C(=O)NCc2ccccc2)cc1 (stereo not given) | 0.324% | 5.47% | -2.31% | 3.45% | -2.82%
COc1ccccc1N1C(=O)c2cc3ccccc3n2CC1(C)C(=O)NC1CCCC1 (stereo not given) | -1.53% | 7.55% | -0.226% | 0.019% | -1.08%
Cn1ncc(N2CCC(CNC(=O)CCN3CCCC3=O)C2)cc1=O (stereo not given) | -3.6% | 3.69% | 0.496% | -2.6% | 11.2%
Cc1ccccc1CSc1nnc2n(CC(C)C)c(=O)c3ccc(C(=O)NC(C)C)cc3n12 | 5.16% | 0.953% | 5.72% | -1.18% | 2.95%
Cc1c(Cl)cccc1N1C(=O)c2cc3occc3n2CC1(C)C(=O)NC1CCCCC1 (stereo not given) | 0.631% | 4.68% | 2.92% | 4.78% | -1.2%
CC1=CCC(C(C)(C)O[C@@H]2O[C@H](CO[C@@H]3O[C@@H](C)[C@H](O)[C@@H](O)[C@H]3O)[C@@H](O)[C@H](O)[C@H]2O)CC1 (stereo not given in full) | 0% | 8.01% | 10.3% | -5.82% | 6.2%
CCN(CC)CCNC(=O)CCc1nnc2n(Cc3ccc(C)cc3)c(=O)c3ccccc3n12 | -8.58% | 4.26% | -40.5% | 5.4% | -8.29%
CCCn1c(=O)c2ccc(Cl)cc2n2c(SCC(=O)Nc3cccc(OC)c3)nnc12 | 0.11% | 3.38% | 4.79% | -3.22% | -1.66%
Nc1ccc(-c2cccc3c(=O)cc(N4CCOCC4)oc23)cc1 | -4.55% | 3.65% | 2.97% | -46.9% | -0.724%
COc1ccc(/C=C/C(=O)N2CCCC2)cc1 | -4.66% | -6.5% | 1.31% | -15.7% | -9.41%
CC(NC(=O)CC(=O)O)C(=O)Nc1ccccc1C(N)=O (stereo not given) | 1.49% | 4.6% | 5.26% | -8.05% | 5.64%
Cc1ccsc1C(=O)N1CCN(c2cc(-c3cccs3)[nH]n2)CC1 | -8.67% | -3.01% | -2.32% | -9.45% | -3.78%
CCCn1c(=O)c2ccc(Cl)cc2n2c(SCC(=O)Nc3cccc(C)c3)nnc12 | -2.59% | 2.02% | 0.382% | -0.116% | -2.14%
CC1=C(C(=O)OC2CCCCC2)C(c2ccc([N+](=O)[O-])cc2)C2=C(CC(C)(C)CC2=O)N1 (stereo not given) | -81.3% | -87.8% | -44.2% | -57.7% | -33%
O=C(Nc1ccccc1F)N1Cc2c(sc3c2CCCC3)-n2cccc2C1c1cccc(F)c1 (stereo not given) | 2.07% | 0.438% | 3.18% | -0.235% | 5.06%
CCCC1c2cccn2CCN1C(=O)Nc1cc(OC)cc(OC)c1 (stereo not given) | -3.67% | 0% | -18.2% | -3.22% | 2.07%
Cc1ccc(NS(=O)(=O)c2ccc3c(c2)[C@H]2C=CC[C@H]2[C@@H](c2cccc(Cl)c2)N3)c(C)c1 | -7.77% | -11.4% | -22.1% | -33.2% | -15%
CCOC(=O)c1cc2n(n1)CC(C)(C(=O)NC1CCCCC1)N(c1ccc(C)cc1Cl)C2=O (stereo not given) | 3.21% | 2.79% | -4.26% | 2.81% | 0.337%
COc1cc(NC(=O)Cn2nc3n(CCc4ccccc4)c(=O)c4ccccc4n3c2=O)cc(OC)c1 | 8.27% | 1.21% | 12.6% | 9.75% | 7.37%
C=C(C)C1CCC2(C(=O)O)CCC3(C(=O)O)C(CCC4C5(C)CCC(O)C(C)(C(=O)O)C5CCC43C)C12 (stereo not given) | 0% | -3.75% | -4.72% | -13.7% | 1.06%
